In PubChem BioAssay AID488969 (Vanderbilt High Throughput Screening Facility, 2010):
The full ranking holds about 110,000 compounds; the median of “z-score” is about -0.1, and the highest 2% start at about 2. Some of the results follow. Activity calls are given as the source filed them.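 How the source made its calls: active means z-score in the third read window above 3 or below -3; inactive means the rest.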

target: Metabotropic glutamate receptor 8 (Rattus norvegicus) (UniProt P70579); test: rat mGluR8 modulators via GIRK flux, primary screen, cell-based, thallium flux, HTS (AID 488969); conditions: HEK293 rat mGluR8, GIRK (G protein-gated inwardly rectifying potassium channel) thallium flux, FluoZin2; at 10 µM; stronger effect = higher value; submaximal glutamate (EC20) added with thallium
Sequence of UniProt P70579 (P70579 whole entry, looked up): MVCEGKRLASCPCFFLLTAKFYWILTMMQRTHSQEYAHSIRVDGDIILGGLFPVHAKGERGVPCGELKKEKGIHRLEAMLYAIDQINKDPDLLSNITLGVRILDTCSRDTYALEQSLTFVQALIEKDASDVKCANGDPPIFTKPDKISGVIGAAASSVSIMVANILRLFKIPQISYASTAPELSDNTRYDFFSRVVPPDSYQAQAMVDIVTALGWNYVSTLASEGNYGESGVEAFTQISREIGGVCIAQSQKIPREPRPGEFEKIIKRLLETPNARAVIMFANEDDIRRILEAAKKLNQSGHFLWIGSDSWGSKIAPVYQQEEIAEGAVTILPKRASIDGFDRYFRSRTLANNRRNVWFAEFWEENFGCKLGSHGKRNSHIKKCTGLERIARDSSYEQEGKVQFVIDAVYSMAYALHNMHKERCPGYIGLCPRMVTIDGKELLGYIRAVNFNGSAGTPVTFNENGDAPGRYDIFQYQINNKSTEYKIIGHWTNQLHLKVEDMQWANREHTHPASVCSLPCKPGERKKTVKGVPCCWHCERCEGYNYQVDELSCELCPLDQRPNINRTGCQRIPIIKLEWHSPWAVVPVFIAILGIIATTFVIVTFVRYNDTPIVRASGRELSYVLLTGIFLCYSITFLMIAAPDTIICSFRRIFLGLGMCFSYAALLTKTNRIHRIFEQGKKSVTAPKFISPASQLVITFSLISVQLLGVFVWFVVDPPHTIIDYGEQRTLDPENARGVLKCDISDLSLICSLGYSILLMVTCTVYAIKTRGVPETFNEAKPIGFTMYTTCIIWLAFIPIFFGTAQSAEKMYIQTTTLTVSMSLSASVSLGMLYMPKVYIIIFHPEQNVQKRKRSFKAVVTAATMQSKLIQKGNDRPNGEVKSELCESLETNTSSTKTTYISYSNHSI

SMILES	z-score
CCN(C(=O)COC(=O)CNC(=O)c1ccc(C)c(C)c1)C1CCS(=O)(=O)C1 (stereo not drawn)	-0.0875
CCOC(=O)c1c(NC(=O)c2ccoc2C)sc(C)c1C	-0.133
C/C(N)=C(/C#N)C(=O)COC(=O)CCS(=O)(=O)c1ccccc1	-0.258
Cc1sc(NC(=O)c2ccccc2)c(C(c2ccccn2)N2CCN(CCO)CC2)c1C (stereo not drawn)	-0.255
Fc1ccc(-c2ccnc3nc(N4CCOCC4)nn23)cc1	-0.236
COC(=O)C(NC(=O)CCc1c(C)nc2ncnn2c1C)C(C)C (stereo not drawn)	0.141
O=C1C2CC=CCC2C(=O)N1c1ccc(NCCc2cccc(F)c2)c([N+](=O)[O-])c1 (stereo not drawn)	0.109
O=C(CSc1nnc(CNC(=O)c2cccs2)o1)Nc1ccc2c(c1)OCO2	-0.175
Cc1ccc(C2=NN3C(C(=O)c4ccccc4)Oc4ccccc4C3C2)cc1 (stereo not drawn)	-0.0987
CCCCc1cc(=O)oc2cc(OCc3nn[nH]n3)c(Cl)cc12	-0.0288
CCCCN1C(=O)/C(=C/C=C2/CC(C)(C)CN2C)SC1=S	-1.1
O=C(Nc1ccc(OC(F)F)c(Cl)c1)Nc1ccc2c(c1)OCO2	-0.109
Cc1ccc(NC(=O)CN(c2ccccc2)S(=O)(=O)N(C)C)cc1	0.149
Cn1c(=O)c2c(SCC(=O)N3CCCc4ccccc43)nc(CC(C)(C)C)nc2n(C)c1=O	-0.0793
CCOC(=O)C(NC(=O)c1cccnc1)(Nc1cccc(C)n1)C(F)(F)F (stereo not drawn)	0.399
Cc1c(C(=O)NCc2cccs2)oc2ccc(Br)cc12	0.0404
CC(=O)c1sc(NC(=O)c2cc(-c3ccccc3)nn2-c2ccccc2)nc1C	active: 3
COc1ccc(OC)c(C2CC(=O)N3CN(c4ccc(C)c(Cl)c4)CSC3=C2C#N)c1 (stereo not drawn)	-0.177
Cn1cnc([N+](=O)[O-])c1Oc1ccccc1	-0.416
O=C(Nc1ccccc1)N1CCN(Cc2ccc3c(c2)OCO3)CC1	-0.318
O=c1c2ccccc2ncn1Cc1ccco1	-0.2
COC(=O)c1sc(N)c(C(=O)OC)c1COC(=O)CNS(=O)(=O)c1ccc(C)cc1	-0.387
O=C(Nc1ccccc1Cl)c1ccn[nH]1	-0.0806
O=C(CCN1CCc2ccccc2C1)Nc1ccc2c(c1)OCO2	0.267
COc1ccc(C(=O)/C=C(\C)Nc2ccc3c(c2)OCO3)cc1	-0.807
CC(C)c1ccc(NC(=O)C2CC(=O)N(C(C)C)C2)cc1 (stereo not drawn)	0.188
O=C(/C=C/Nc1ccc(OC(F)(F)F)cc1)C(F)(F)F	-0.241

SMILES	z-score
O=C(c1ccncc1)N(c1ccc2oc3c(c2c1)CCCC3)S(=O)(=O)c1cccc([N+](=O)[O-])c1	-0.1
COc1cc(/C=N/NC(=O)CN(Cc2ccccc2)S(=O)(=O)c2ccc3c(c2)OCCO3)ccc1O	-0.0717
Cc1cc(C)c(S(=O)(=O)c2ccccc2)c(OC(=O)c2cc(F)c(F)cc2Cl)n1	-2.04
N#C/C(C(=O)N1CCOCC1)=C1\Nc2ccccc2S1	0.454
CCCCNC(=O)Cn1c(=O)oc2cc(S(=O)(=O)N3CC(C)CC(C)C3)ccc21 (stereo not drawn)	-0.066
COc1ccc(CC(C(=O)Nc2cccc(F)c2)c2nn[nH]n2)c(OC)c1 (stereo not drawn)	-1.18
Cc1cc(C)c(C#N)c(Oc2ccc(F)cc2)n1	0.000352
COc1ccc(OC)c(NC(=O)CCNS(=O)(=O)c2cccs2)c1	-0.0618
O=C(NC(C(=O)N/N=C/c1cccc2ccccc12)c1n[nH]c(=O)c2ccccc12)c1ccccc1 (stereo not drawn)	-0.0873
CCS(=O)(=O)N1CCCC(C(=O)NCCc2ccccc2)C1 (stereo not drawn)	-0.0661
Cn1c(=O)c2c(nc(NCc3ccc4c(c3)OCO4)n2Cc2ccccc2)n(C)c1=O	-1.09
COc1ccc(/C(O)=C2/C(=O)C(=O)N(CCN(C)C)C2c2ccc(OC)c(OC)c2)c(C)c1 (stereo not drawn)	1.01
CSCCC1(C(=O)O)NC(c2ccccc2O)C2C(=O)N(C(C)C)C(=O)C21 (stereo not drawn)	-0.427
Cc1ccc(N(CCCCN2C(=O)c3ccccc3C2=O)C(=O)c2cccs2)cc1	0.0647
Cc1sc(NC(=O)c2ccco2)c(C(c2cccnc2)N2CCCC2)c1C (stereo not drawn)	-0.443
CCOc1c2ccc(C(=O)NCc3ccc(C)cc3)cc2nn1CC	-0.258
CCOc1ccc(S(=O)(=O)N/N=C(\C)C2CCCCC2)cc1	0.0618
CCOC(=O)c1nn(-c2ccc(Cl)cc2)c2nc(Nc3ccccc3)cc(=O)n12	-0.375
N#CCc1nc(CSc2nc3ccccc3s2)cs1	-0.135
Cc1[nH]n(-c2ccccc2)c(=O)c1C(c1ccc(O)c([N+](=O)[O-])c1)c1c(C)[nH]n(-c2ccccc2)c1=O	-0.776
CC(C)OCCCNC(=O)c1ccccc1Oc1ccccc1	-0.178
CC(=O)Nc1ccc(S(=O)(=O)NC2(C(F)(F)F)N=C(c3ccccc3)NC2=O)cc1 (stereo not drawn)	-0.0636
Cn1c(=O)c2c(nc(SCc3cccnc3)n2Cc2ccccc2)n(C)c1=O	0.674
CCCCN(CCCNC(=O)C1CCN(S(=O)(=O)CC)CC1)c1ccccc1	-0.175
Cc1cc(N/N=C/c2cccc(Cl)c2)nc(NCc2ccccc2)n1	-0.218
COc1ccc(Cc2nnc3c4cnn(C)c4ncn23)cc1	1.03
